Assay results taken from the supplement of paper PMC12423691.
Some of the results follow. Binding of human transcription factors and regulators to the viral nucleoprotein by AlphaScreen, crude cell-free proteins, amounts not normalised, one pass. Fold of the Venus control; higher = more signal. No active / inactive call. Single-pass screen; sequences are the whole Swiss-Prot entries looked up by name.

B1: TBR1, Q16650 (protein)
chain: MQLEHCLSPSIMLSKKFLNVSSSYPHSGGSELVLHDHPIISTTDNLERSSPLKKITRGMTNQSDTDNFPDSKDSPGDVQRSKLSPVLDGVSELRHSFDGSAADRYLLSQSSQPQSAATAPSAMFPYPGQHGPAHPAFSIGSPSRYMAHHPVITNGAYNSLLSNSSPQGYPTAGYPYPQQYGHSYQGAPFYQFSSTQPGLVPGKAQVYLCNRPLWLKFHRHQTEMIITKQGRRMFPFLSFNISGLDPTAHYNIFVDVILADPNHWRFQGGKWVPCGKADTNVQGNRVYMHPDSPNTGAHWMRQEISFGKLKLTNNKGASNNNGQMVVLQSLHKYQPRLHVVEVNEDGTEDTSQPGRVQTFTFPETQFIAVTAYQNTDITQLKIDHNPFAKGFRDNYDTIYTGCDMDRLTPSPNDSPRSQIVPGARYAMAGSFLQDQFVSNYAKARFHPGAGAGPGPGTDRSVPHTNGLLSPQQAEDPGAPSPQRWFVTPANNRLDFAASAYDTATDFAGNAATLLSYAAAGVKALPLQAAGCTGRPLGYYADPSGWGARSPPQYCGTKSGSVLPCWPNSAAAAARMAGANPYLGEEAEGLAAERSPLPPGAAEDAKPKDLSDSSWIETPSSIKSIDSSDSGIYEQAKRRRISPADTPVSESSSPLKSEVLAQRDCEKNCAKDISGYYGFYSHS
B2: PPARGC1A, Q9UBK2 (protein)
chain: MAWDMCNQDSESVWSDIECAALVGEDQPLCPDLPELDLSELDVNDLDTDSFLGGLKWCSDQSEIISNQYNNEPSNIFEKIDEENEANLLAVLTETLDSLPVDEDGLPSFDALTDGDVTTDNEASPSSMPDGTPPPQEAEEPSLLKKLLLAPANTQLSYNECSGLSTQNHANHNHRIRTNPAIVKTENSWSNKAKSICQQQKPQRRPCSELLKYLTTNDDPPHTKPTENRNSSRDKCTSKKKSHTQSQSQHLQAKPTTLSLPLTPESPNDPKGSPFENKTIERTLSVELSGTAGLTPPTTPPHKANQDNPFRASPKLKSSCKTVVPPPSKKPRYSESSGTQGNNSTKKGPEQSELYAQLSKSSVLTGGHEERKTKRPSLRLFGDHDYCQSINSKTEILINISQELQDSRQLENKDVSSDWQGQICSSTDSDQCYLRETLEASKQVSPCSTRKQLQDQEIRAELNKHFGHPSQAVFDDEADKTGELRDSDFSNEQFSKLPMFINSGLAMDGLFDDSEDESDKLSYPWDGTQSYSLFNVSPSCSSFNSPCRDSVSPPKSLFSQRPQRMRSRSRSFSRHRSCSRSPYSRSRSRSPGSRSSSRSCYYYESSHYRHRTHRNSPLYVRSRSRSPYSRRPRYDSYEEYQHERLKREEYRREYEKRESERAKQRERQRQKAIEERRVIYVGKIRPDTTRTELRDRFEVFGEIEECTVNLRDDGDSYGFITYRYTCDAFAALENGYTLRRSNETDFELYFCGRKQFFKSNYADLDSNSDDFDPASTKSKYDSLDFDSLLKEAQRSLRR
B3: RXRB, P28702 (protein)
chain: MSWAARPPFLPQRHAAGQCGPVGVRKEMHCGVASRWRRRRPWLDPAAAAAAAVAGGEQQTPEPEPGEAGRDGMGDSGRDSRSPDSSSPNPLPQGVPPPSPPGPPLPPSTAPSLGGSGAPPPPPMPPPPLGSPFPVISSSMGSPGLPPPAPPGFSGPVSSPQINSTVSLPGGGSGPPEDVKPPVLGVRGLHCPPPPGGPGAGKRLCAICGDRSSGKHYGVYSCEGCKGFFKRTIRKDLTYSCRDNKDCTVDKRQRNRCQYCRYQKCLATGMKREAVQEERQRGKDKDGDGEGAGGAPEEMPVDRILEAELAVEQKSDQGVEGPGGTGGSGSSPNDPVTNICQAADKQLFTLVEWAKRIPHFSSLPLDDQVILLRAGWNELLIASFSHRSIDVRDGILLATGLHVHRNSAHSAGVGAIFDRVLTELVSKMRDMRMDKTELGCLRAIILFNPDAKGLSNPSEVEVLREKVYASLETYCKQKYPEQQGRFAKLLLRLPALRSIGLKCLEHLFFFKLIGDTPIDTFLMEMLEAPHQLA
B4: ZFP36L1, Q07352 (protein)
chain: MTTTLVSATIFDLSEVLCKGNKMLNYSAPSAGGCLLDRKAVGTPAGGGFPRRHSVTLPSSKFHQNQLLSSLKGEPAPALSSRDSRFRDRSFSEGGERLLPTQKQPGGGQVNSSRYKTELCRPFEENGACKYGDKCQFAHGIHELRSLTRHPKYKTELCRTFHTIGFCPYGPRCHFIHNAEERRALAGARDLSADRPRLQHSFSFAGFPSAAATAAATGLLDSPTSITPPPILSADDLLGSPTLPDGTNNPFAFSSQELASLFAPSMGLPGGGSPTTFLFRPMSESPHMFDSPPSPQDSLSDQEGYLSSSSSSHSGSDSPTLDNSRRLPIFSRLSISDD
B5: TRIM27, P14373 (protein)
chain: MASGSVAECLQQETTCPVCLQYFAEPMMLDCGHNICCACLARCWGTAETNVSCPQCRETFPQRHMRPNRHLANVTQLVKQLRTERPSGPGGEMGVCEKHREPLKLYCEEDQMPICVVCDRSREHRGHSVLPLEEAVEGFKEQIQNQLDHLKRVKDLKKRRRAQGEQARAELLSLTQMEREKIVWEFEQLYHSLKEHEYRLLARLEELDLAIYNSINGAITQFSCNISHLSSLIAQLEEKQQQPTRELLQDIGDTLSRAERIRIPEPWITPPDLQEKIHIFAQKCLFLTESLKQFTEKMQSDMEKIQELREAQLYSVDVTLDPDTAYPSLILSDNLRQVRYSYLQQDLPDNPERFNLFPCVLGSPCFIAGRHYWEVEVGDKAKWTIGVCEDSVCRKGGVTSAPQNGFWAVSLWYGKEYWALTSPMTALPLRTPLQRVGIFLDYDAGEVSFYNVTERCHTFTFSHATFCGPVRPYFSLSYSGGKSAAPLIICPMSGIDGFSGHVGNHGHSMETSP
B6: NKX6-1, P78426 (protein)
chain: MLAVGAMEGTRQSAFLLSSPPLAALHSMAEMKTPLYPAAYPPLPAGPPSSSSSSSSSSSPSPPLGTHNPGGLKPPATGGLSSLGSPPQQLSAATPHGINDILSRPSMPVASGAALPSASPSGSSSSSSSSASASSASAAAAAAAAAAAAASSPAGLLAGLPRFSSLSPPPPPPGLYFSPSAAAVAAVGRYPKPLAELPGRTPIFWPGVMQSPPWRDARLACTPHQGSILLDKDGKRKHTRPTFSGQQIFALEKTFEQTKYLAGPERARLAYSLGMTESQVKVWFQNRRTKWRKKHAAEMATAKKKQDSETERLKGASENEEEDDDYNKPLDPNSDDEKITQLLKKHKSSSGGGGGLLLHASEPESSS
B7: AIRE, O43918 (protein)
chain: MATDAALRRLLRLHRTEIAVAVDSAFPLLHALADHDVVPEDKFQETLHLKEKEGCPQAFHALLSWLLTQDSTAILDFWRVLFKDYNLERYGRLQPILDSFPKDVDLSQPRKGRKPPAVPKALVPPPRLPTKRKASEEARAAAPAALTPRGTASPGSQLKAKPPKKPESSAEQQRLPLGNGIQTMSASVQRAVAMSSGDVPGARGAVEGILIQQVFESGGSKKCIQVGGEFYTPSKFEDSGSGKNKARSSSGPKPLVRAKGAQGAAPGGGEARLGQQGSVPAPLALPSDPQLHQKNEDECAVCRDGGELICCDGCPRAFHLACLSPPLREIPSGTWRCSSCLQATVQEVQPRAEEPRPQEPPVETPLPPGLRSAGEEVRGPPGEPLAGMDTTLVYKHLPAPPSAAPLPGLDSSALHPLLCVGPEGQQNLAPGARCGVCGDGTDVLRCTHCAAAFHWRCHFPAGTSRPGTGLRCRSCSGDVTPAPVEGVLAPSPARLAPGPAKDDTASHEPALHRDDLESLLSEHTFDGILQWAIQSMARPAAPFPS
B8: GLIS3, Q8NEA6 (protein)
chain: MMVQRLGLISPPASQVSTACNQISPSLQRAMNAANLNIPPSDTRSLISRESLASTTLSLTESQSASSMKQEWSQGYRALPSLSNHGSQNGLDLGDLLSLPPGTSMSSNSVSNSLPSYLFGTESSHSPYPSPRHSSTRSHSARSKKRALSLSPLSDGIGIDFNTIIRTSPTSLVAYINGSRASPANLSPQPEVYGHFLGVRGSCIPQPRPVPGSQKGVLVAPGGLALPAYGEDGALEHERMQQLEHGGLQPGLVNHMVVQHGLPGPDSQSAGLFKTERLEEFPGSTVDLPPAPPLPPLPPPPGPPPPYHAHAHLHHPELGPHAQQLALPQATLDDDGEMDGIGGKHCCRWIDCSALYDQQEELVRHIEKVHIDQRKGEDFTCFWAGCPRRYKPFNARYKLLIHMRVHSGEKPNKCTFEGCEKAFSRLENLKIHLRSHTGEKPYLCQHPGCQKAFSNSSDRAKHQRTHLDTKPYACQIPGCTKRYTDPSSLRKHVKAHSSKEQQARKKLRSSTELHPDLLTDCLTVQSLQPATSPRDAAAEGTVGRSPGPGPDLYSAPIFSSNYSSRSGTAAGAVPPPHPVSHPSPGHNVQGSPHNPSSQLPPLTAVDAGAERFAPSAPSPHHISPRRVPAPSSILQRTQPPYTQQPSGSHLKSYQPETNSSFQPNGIHVHGFYGQLQKFCPPHYPDSQRIVPPVSSCSVVPSFEDCLVPTSMGQASFDVFHRAFSTHSGITVYDLPSSSSSLFGESLRSGAEDATFLQISTVDRCPSQLSSVYTEG
B9: EPHA5, P54756 (protein)
chain: MRGSGPRGAGRRRPPSGGGDTPITPASLAGCYSAPRRAPLWTCLLLCAALRTLLASPSNEVNLLDSRTVMGDLGWIAFPKNGWEEIGEVDENYAPIHTYQVCKVMEQNQNNWLLTSWISNEGASRIFIELKFTLRDCNSLPGGLGTCKETFNMYYFESDDQNGRNIKENQYIKIDTIAADESFTELDLGDRVMKLNTEVRDVGPLSKKGFYLAFQDVGACIALVSVRVYYKKCPSVVRHLAVFPDTITGADSSQLLEVSGSCVNHSVTDEPPKMHCSAEGEWLVPIGKCMCKAGYEEKNGTCQVCRPGFFKASPHIQSCGKCPPHSYTHEEASTSCVCEKDYFRRESDPPTMACTRPPSAPRNAISNVNETSVFLEWIPPADTGGRKDVSYYIACKKCNSHAGVCEECGGHVRYLPRQSGLKNTSVMMVDLLAHTNYTFEIEAVNGVSDLSPGARQYVSVNVTTNQAAPSPVTNVKKGKIAKNSISLSWQEPDRPNGIILEYEIKYFEKDQETSYTIIKSKETTITAEGLKPASVYVFQIRARTAAGYGVFSRRFEFETTPVFAASSDQSQIPVIAVSVTVGVILLAVVIGVLLSGSCCECGCGRASSLCAVAHPSLIWRCGYSKAKQDPEEEKMHFHNGHIKLPGVRTYIDPHTYEDPNQAVHEFAKEIEASCITIERVIGAGEFGEVCSGRLKLPGKRELPVAIKTLKVGYTEKQRRDFLGEASIMGQFDHPNIIHLEGVVTKSKPVMIVTEYMENGSLDTFLKKNDGQFTVIQLVGMLRGISAGMKYLSDMGYVHRDLAARNILINSNLVCKVSDFGLSRVLEDDPEAAYTTRGGKIPIRWTAPEAIAFRKFTSASDVWSYGIVMWEVVSYGERPYWEMTNQDVIKAVEEGYRLPSPMDCPAALYQLMLDCWQKERNSRPKFDEIVNMLDKLIRNPSSLKTLVNASCRVSNLLAEHSPLGSGAYRSVGEWLEAIKMGRYTEIFMENGYSSMDAVAQVTLEDLRRLGVTLVGHQKKIMNSLQEMKVQLVNGMVPL

Biological target: nucleoprotein N of Crimean-Congo hemorrhagic fever virus
Assay: AlphaScreen luminescence signal relative to Venus negative control (fold); higher = stronger binding to CCHFV N
Procedure: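 AlphaScreen binding of cell-free made, FLAG-GST-tagged human transcription factors and regulators (crude translation products) to biotinylated N protein; signal as fold of the FLAG-GST-Venus control. One pass.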

| Binder | AlphaScreen luminescence signal |
| --- | --- |
| B1 | 2.19 |
| B2 | 1.53 |
| B3 | 4 |
| B4 | 41.3 |
| B5 | 2.47 |
| B6 | 3.44 |
| B7 | 1.86 |
| B8 | 2.56 |
| B9 | 3.02 |
